Laboratory results: the supplement of paper PMC4967469
A lower IC50 marks a more sensitive line; fits outside the tested doses are given as limits. The AUC spans the tested range (256-fold, ending at the top dose) of the same fit: 1 means no effect, lower means more sensitive. For some of these results: The top dose, if marked as inferred, was derived from the fitted curves, not read from the paper. For some of these results: Drugs with an entry number were screened twice under separate entries, and the two screens often disagree.

Legend:
Assay in all cases: Viability of human cancer cell lines after 72 h of drug (GDSC screen)
KU-55933 = compound: O=c1cc(-c2cccc3c2Sc2ccccc2S3)oc(N2CCOCC2)c1 [KU-55933]; settings: top dose 10 µM
Experimental: (§1)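 Human cancer cell lines in 384-well plates, medium with 10% serum, drug for 72 h over a 256-fold dose range (nine 2-fold or five 4-fold steps up to the top dose). Adherent lines were fixed and stained with the nucleic acid dye Syto60, suspension lines read with resazurin; signal relative to control wells, capped at 0 and 100%. One two-parameter sigmoid per drug and line, fitted in a mixed model over all curves with the slope shared within a line.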

CHIR-99021 = compound: Cc1cnc(-c2cnc(NCCNc3ccc(C#N)cn3)nc2-c2ccc(Cl)cc2Cl)[nH]1 [CHIR-99021]
Experimental: as §1

Thapsigargin = compound: C/C=C(/C)C(=O)O[C@H]1C(C)=C2[C@H]([C@@H]1OC(=O)CCCCCCC)[C@@](C)(OC(C)=O)C[C@H](OC(=O)CCC)[C@@]1(O)[C@H]2OC(=O)[C@@]1(C)O [Thapsigargin]; settings: top dose 0.512 µM; top dose inferred
Experimental: as §1

Cytarabine = compound: Nc1ccn([C@@H]2O[C@H](CO)[C@@H](O)[C@@H]2O)c(=O)n1 [Cytarabine]; settings: top dose 2 µM
Experimental: as §1

ABT-888 = compound: C[C@]1(c2nc3c(C(N)=O)cccc3[nH]2)CCCN1 [ABT-888]; settings: top dose 5 µM; top dose inferred
Experimental: as §1

GSK269962A = compound: CCn1c(-c2nonc2N)nc2cnc(Oc3cccc(NC(=O)c4ccc(OCCN5CCOCC5)cc4)c3)cc21 [GSK269962A]; settings: top dose 5 µM; screen: GDSC drug entry 1192; top dose inferred
Experimental: as §1

(5Z)-7-Oxozeaenol = compound: COc1cc(O)c2c(c1)/C=C/C[C@H](O)[C@H](O)C(=O)/C=C\C[C@H](C)OC2=O [(5Z)-7-Oxozeaenol]; settings: top dose 10 µM; top dose inferred
Experimental: as §1

CP466722 = compound: COc1cc2ncnc(-n3nc(-c4ccccn4)nc3N)c2cc1OC [CP466722]; settings: top dose 16 µM; top dose inferred
Experimental: as §1

Zibotentan = compound: COc1nc(C)cnc1NS(=O)(=O)c1cccnc1-c1ccc(-c2nnco2)cc1 [Zibotentan]; settings: top dose 20 µM; top dose inferred
Experimental: as §1

ABT-869 = compound: Cc1ccc(F)c(NC(=O)Nc2ccc(-c3cccc4[nH]nc(N)c34)cc2)c1 [ABT-869]; settings: top dose 1.024 µM; top dose inferred
Experimental: as §1

QL-X-138 = compound: C=CC(=O)Nc1cc(-n2c(=O)ccc3cnc4ccc(-c5cn[nH]c5)cc4c32)ccc1C [QL-X-138]; settings: top dose 10.24 µM; top dose inferred
Experimental: as §1

MPS-1-IN-1 = compound: COc1cc(N2CCC(O)CC2)ccc1Nc1cc(Nc2ccccc2S(=O)(=O)C(C)C)c2cc[nH]c2n1 [MPS-1-IN-1]; settings: top dose 20 µM; top dose inferred
Experimental: as §1

[1] = top dose 2.56 µM, screen: GDSC drug entry 154
[2] = top dose 10 µM, screen: GDSC drug entry 1241, top dose inferred

Cell Line | AUC (KU-55933) | IC50 (KU-55933) [nM] | AUC (CHIR-99021; [1]) | IC50 (CHIR-99021; [1]) [nM] | AUC (CHIR-99021; [2]) | IC50 (CHIR-99021; [2]) [nM] | AUC (Thapsigargin) | IC50 (Thapsigargin) [nM] | AUC (Cytarabine) | IC50 (Cytarabine) [nM] | AUC (ABT-888) | IC50 (ABT-888) [nM] | AUC (GSK269962A) | IC50 (GSK269962A) [nM] | AUC ((5Z)-7-Oxozeaenol) | IC50 ((5Z)-7-Oxozeaenol) [nM] | AUC (CP466722) | IC50 (CP466722) [nM] | AUC (Zibotentan) | IC50 (Zibotentan) [nM] | AUC (ABT-869) | IC50 (ABT-869) [nM] | AUC (QL-X-138) | IC50 (QL-X-138) [nM] | AUC (MPS-1-IN-1) | IC50 (MPS-1-IN-1) [nM]
JHU-029 (head and neck, adherent) | 0.979 | > 10000 | 0.98 | > 2560 | 0.977 | > 10000 | 0.36 | 11.9 | 0.605 | 260 | 0.961 | > 5000 | 0.936 | > 5000 | 0.571 | 1020 | – | – | – | – | – | – | – | – | – | –
KP-1N (pancreas, adherent) | 0.973 | > 10000 | 0.983 | > 2560 | 0.958 | > 10000 | 0.124 | < 2 | 0.786 | 912 | 0.982 | > 5000 | 0.918 | > 5000 | 0.746 | 3310 | 0.557 | 1440 | – | – | – | – | – | – | – | –
KYSE-410 (oesophagus, adherent) | 0.965 | > 10000 | 0.973 | > 2560 | – | – | 0.112 | < 2 | 0.734 | 611 | 0.967 | > 5000 | 0.694 | 1140 | – | – | 0.889 | > 16000 | 0.985 | > 20000 | 0.979 | > 1020 | 0.769 | 4110 | 0.92 | > 20000
MKN28 (stomach, adherent) | 0.962 | > 10000 | 0.924 | > 2560 | – | – | 0.223 | 4.88 | 0.823 | 1220 | 0.987 | > 5000 | 0.974 | > 5000 | – | – | 0.951 | > 16000 | 0.982 | > 20000 | 0.983 | > 1020 | 0.871 | 9990 | 0.929 | > 20000
NCI-H3122 (lung adenocarcinoma, adherent) | 0.966 | > 10000 | 0.974 | > 2560 | – | – | 0.218 | 4.64 | 0.691 | 437 | 0.987 | > 5000 | – | – | – | – | 0.837 | 11100 | 0.982 | > 20000 | 0.983 | > 1020 | 0.769 | 3960 | 0.507 | 1300
PA-1 (ovary, adherent) | 0.967 | > 10000 | 0.934 | > 2560 | – | – | 0.107 | 2.71 | 0.718 | 440 | 0.992 | > 5000 | – | – | – | – | 0.566 | 1450 | 0.977 | > 20000 | 0.993 | > 1020 | 0.31 | 215 | 0.705 | 4050
